According to PubChem BioAssay AID686978 (National Center for Advancing Translational Sciences (NCATS), 2013):
Where “and” joins values, the source holds several entries; their conditions need not be identical. Equal entries are not always repeated. The whole screen tested about 420,000 compounds, of which about 64,000 (15%) were called active. Inconclusive means that the source gave no clear call. Such entries were picked first, then a sample of the others. Calls come from the whole dose curve; as a rule, active = well fitted inhibition curve with a large enough effect; inconclusive = small, poorly fitted or top-dose-only effect; inactive = flat fitted curve, though single readings scatter. Potencies of inconclusive entries are doubtful fits and often do not repeat. More than one record can exist for a structure, and the calls need not agree.

Experiment: qHTS for Inhibitors of human tyrosyl-DNA phosphodiesterase 1 (TDP1): qHTS in cells in absence of CPT; note: nearly all actives have a fitted effect of over 55% in size
Conditions: DT40 Tdp1-/- hTDP1 cells, no CPT, ATP luminescence, 48 h; activity change, negative = growth inhibition: at 46.2 µM (top of the series) unless noted
How it was run: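 A cellular qHTS used chicken DT40 cells lacking endogenous Tdp1 but carrying stably transfected human TDP1. Compounds were applied without camptothecin, and cell growth kinetics were judged by ATP-dependent luminescence after ≥48 hr.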
% is set by controls: 0 for no effect and ±100 for the full control effect; potency is the fitted concentration of half-maximal effect; tags give direction and shape of the fitted curve.

SMILES | Potency | activity change, negative = growth inhibition
CC(C)CC(NC(=O)CCCNC(=O)CCC(=O)OC1O[C@H]2OC3(C)CC[C@H]4[C@H](C)CCC(C1C)C24OO3)C(=O)O (some centres not stated) | active: 0.184 µM | 
COc1ccccc1NC(=O)Cn1c(=O)oc2cc(S(=O)(=O)N3CCCC3)ccc21 | inconclusive: 29.1 µM [inhibitor, single point] | 
CC(C)NC(C)C | inactive | 
S=C=Nc1ccccn1 | inconclusive: 29.1 µM [inhibitor, single point] | 
CC(C)NC(=O)N1CCC2(CC1)CCN(C(=O)Oc1ccccc1)CC2 | inconclusive: 29.1 µM [inhibitor, single point] | 
COc1cc(/C=C/[N+](=O)[O-])ccc1OC(=O)c1cccnc1 | active: 2.31 µM | 
c1ccc(C2c3ccccc3-n3nncc3CN2CC2CCCCC2)cc1 (configuration not stated) | inconclusive: 29.1 µM [inhibitor, single point] | 
COc1ccccc1-n1c(-c2ccc(C)cc2)nc2ccccc2c1=O | active: 11.6 µM | 
CCCCN(CC)c1c([N+](=O)[O-])cc(C(F)(F)F)cc1[N+](=O)[O-] | inactive | 
COC(=O)C1=C(c2cc3ccccc3s2)C[C@@H]2CC[C@H]1N2C(=O)NC1CCCCC1 | inconclusive: 23.1 µM [inhibitor, single point] | 
Cc1cc(N2CCCCC2)ccc1C=C1C(=O)N(C)C(=S)N(C)C1=O | inconclusive: 18.4 µM [inhibitor, single point] | 
CC(=O)NCC(N)C(=O)c1ccc(Cl)c(Cl)c1 (configuration not stated) | inconclusive: 25.1 µM [inhibitor, single point] | 
Oc1cccc2nc3ccccc3nc12 | inconclusive: 29.1 µM [inhibitor, single point] | 
COc1ccccc1C1Nc2ccccc2-n2c(-c3ccccc3)c3c(=O)n(C)c(=O)n(C)c3c21 (configuration not stated) | active: 6.51 µM | 
COc1ccccc1CN1CCN(C(=O)COc2ccccc2)CC1 | inactive | 
NC(=O)CN1CCCC1=O | active: 2.91 µM | 
CCc1ccccc1NC(=O)c1sc2nc3c(cc2c1N)CN(Cc1ccccc1)CC3 | active: 5.8 µM | 
COc1ccccc1CN1CC[C@@]2(CCCN(C(=O)Oc3ccccc3)C2)C1 | inconclusive: 18.4 µM [inhibitor, partial curve] | 
COC(=O)C(NC(=S)N1CC2C[C@@H](C1)Cn1c2cccc1=O)C(C)C (some centres not stated) | inactive | 
CC1=CC(=O)OC2CC3OC4C[C@@H](C)C5OC6CC7O[C@]8(C)C/C=C\C9OC%10CC%11OC(CC(C)C%12OCCO%12)CC(O)[C@]%11(C)OC%10CC9OC8C[C@]7(C)O[C@]6(C)CCC5OC4C[C@]3(C)OC12 (some centres not stated) | inconclusive: 29.1 µM [inhibitor, single point] | 
CCN(CC)C(=O)c1ccc(NC(=O)c2cn(-c3ccccc3)nc2-c2ccc(OC)cc2)cc1 | inconclusive: 29.1 µM [inhibitor, single point] | 
CN1CCN(Cc2c(F)cccc2Cl)CC1 | inactive | 
CC1=CC(=C2C(=O)NC(=O)NC2=O)C=C(C(F)(F)F)N1Cc1ccccc1 | active: 18.4 µM | 
O=C1NC(=O)N(Cc2cccs2)C(=O)/C1=C/c1ccc(N2CCOCC2)cc1 | inconclusive: 29.1 µM [inhibitor, single point] | 

SMILES | Potency | activity change, negative = growth inhibition
Nc1cccc(SC2CC(=O)N(c3ccc(Cl)cc3C(=O)c3ccccc3)C2=O)c1 (configuration not stated) | active: 20.6 µM | 
CCOC(=O)[C@]12Cc3ccc(C)cc3[C@H]1N(C1CCCCC1)C(=O)c1ccccc12 | active: 2.31 µM | 
COc1ccccc1N1CCN(Cc2ccc(Br)cc2)CC1 | inconclusive: 29.1 µM [inhibitor, single point] | 
COc1ccc(-n2nc(C(=O)NCC(=O)N3CCC4(CC3)OCCO4)c3ccccc3c2=O)cc1Cl | inconclusive: 18.4 µM [inhibitor, single point] | 
CSc1ccc(C(=O)C2CCCN(CCCn3cccn3)C2)cc1 (configuration not stated) | inactive | 
O=P1(NCCCl)OCCCN1CCCl (configuration not stated) | inactive | 
CC(=O)Oc1ccc(Cl)c2cccnc12 | active: 8.2 µM | 
CN1C(=O)C(=Cc2c(OCc3cnc(Cl)s3)ccc3ccccc23)C(=O)N(C)C1=O | inconclusive: 20.6 µM [inhibitor, single point] | 
Cn1cc(/C=C(\C(=O)O)C(C(=O)O)=C2CCCCC2)c2ccccc21 | active: 14.6 µM | 
CC(C)OC(=O)C1C(=O)NC2(C)CC1c1ccccc1O2 (configuration not stated) | inactive | 
O=C1NC(=O)C(CCc2ccccn2)(Cc2cccc(Cl)c2Cl)C(=O)N1c1ccc(Br)cc1 (configuration not stated) |  | inconclusive: -39.9% [inhibitor]
COC(=O)C1(C(=O)OC)C[C@H](c2ccccc2)N(Cc2ccccc2OC)[C@@H]1c1ccccc1 | inconclusive: 18.4 µM [inhibitor, single point] | 
Cn1c(C(=O)N2CCC3(CC2)OCCO3)cc2c(=O)n(C)c3ccccc3c21 | inactive | 
CCOc1ccccc1Oc1coc2cc(OC(=O)N(C)C)ccc2c1=O | inconclusive: 29.1 µM [inhibitor, single point] | 
Cc1cc(N2C(=O)C3CCCN3C2c2ccccc2)no1 (configuration not stated) | inactive | 
Cc1nc2ccccc2c(=O)n1-c1ccc(Cl)cc1[N+](=O)[O-] | inconclusive: 20.6 µM [inhibitor, partial curve] | 
Cc1nn(Cc2ccccc2)c(Cl)c1C(=O)Nc1ccc(OC(F)(F)F)cc1 | inconclusive: 9.2 µM [inhibitor, partial curve] | 
C=CCN1CC[C@]23c4c5ccc(O)c4OC2C(O)CC[C@@]3(O)[C@H]1C5 (some centres not stated) | inactive | 
COc1ccc(-c2cc(=NCC(=O)O)c3ccccc3o2)cc1 | inconclusive: 29.1 µM [inhibitor, single point] | 
COC(=O)C1=C(c2ccc(F)cc2OCc2ccccc2)C[C@@H]2CC[C@H]1N2C(=O)NCc1cccc(F)c1 | inconclusive: 18.4 µM [inhibitor, partial curve] | 
CCCCn1c(O)c(C(CC)=Nc2ccc(OC)cc2OC)c(=O)[nH]c1=O | inconclusive: 29.1 µM [inhibitor, single point] | 
Oc1ccc2c3c1O[C@H]1c4oc5ccccc5c4C[C@@]4(O)[C@@H](C2)N(CC2CC2)CC[C@]314 | inconclusive: 23.1 µM [inhibitor, single point] | 
CCN(CC)c1ccc(CN(C)CCc2ccc(OC)c(OC)c2)cc1 | inconclusive: 29.1 µM [inhibitor, single point] | 
O=C(Nc1cccc(Br)c1)c1c(O)c2c(n(Cc3ccccc3)c1=O)CCCC2 | inactive | 

SMILES | Potency | activity change, negative = growth inhibition
COC(=O)C1=C(c2ccc(-c3ccccc3)c(F)c2)C[C@@H]2CC[C@H]1N2C(=O)NCCCOC(C)C | active: 13 µM | 
CCOP(=O)(OCC)C(Nc1cc(Cl)cc(Cl)c1)c1cccc(O)c1 (configuration not stated) | inconclusive: 29.1 µM [inhibitor, single point] | 
COC(=O)C1=C(c2ccc(F)cc2OCc2ccccc2)C[C@@H]2CC[C@H]1N2C(=O)N1CCOCC1 | active: 7.31 µM | 
COc1ccc(Cc2c(O)[nH]c(=O)[nH]c2=O)c(OC)c1 | inactive | 
O=C(NCc1ccc(Cl)cc1)C(=O)NCC(c1cccnc1)N1CCN(c2ccccc2)CC1 (configuration not stated) | active: 7.31 µM | 
Cc1cccc(C)c1-n1nnnc1C(c1ccccc1OC(F)(F)F)N1CCC(n2c(=O)[nH]c3ccccc32)CC1 (configuration not stated) | active: 5.8 µM | 
O=C1NCN(c2ccccc2)C12CCN(C(c1cccc3ccccc13)c1nnnn1-c1ccc3c(c1)OCCO3)CC2 (configuration not stated) | inconclusive: 23.1 µM [inhibitor, single point] | 
O=P(CN1CCN(c2ccccc2)CC1)(N1CCCCC1)N1CCCCC1 | inconclusive: 0.0058 µM [inhibitor, full curve, poor fit] | 
CC(C)c1c(CN(C)C(C)Cc2ccccc2)n(C)n(-c2ccccc2)c1=O (configuration not stated) | inactive and inconclusive: 25.9 µM [inhibitor, single point] | 
COc1ccccc1N1CCN(Cc2cnc(-c3ccccc3)[nH]2)CC1 | inconclusive: 7.31 µM [inhibitor, partial curve] | 
CN1CCN(Cc2cc(C(C)(C)C)c(O)c(C(C)(C)C)c2)CC1 | inactive | 
CCCCn1c(=O)c(C(=O)Nc2ccccc2C)c(O)c2ccccc21 | active: 9.2 µM | 
O=C1/C(=C/c2ccc(F)cc2)Oc2cc(OC(=O)N3CCOCC3)ccc21 | inconclusive: 20.6 µM [inhibitor, partial curve, poor fit] | 
COc1ccc2c3c1OC1C(O)C=CC4[C@@H](C2)N(C)CC[C@]314 (some centres not stated) | inactive | 
Fc1ccccc1CNC1CN2CCC1CC2 (configuration not stated) | inconclusive: 29.1 µM [inhibitor, single point] | 
CC1(C)CC(=O)C2=C(C1)OC(N)=C([N+](=O)[O-])C2c1ccc(C#N)s1 (configuration not stated) | inconclusive: 29.1 µM [inhibitor, single point] | 
O=C1CC=C2C3CC4N(CCC45c4ccccc4N1C25)CC3=CCO (configuration not stated) | inactive | 
COc1cc2c(ccc3c4cc(OC)c(OC)cc4c[n+](C)c23)cc1O | active: 1.16 µM | 
O=C1OCCC1C(=O)c1ccccc1 (configuration not stated) | inactive | 
O=C1NC(=O)C2(Cc3ccccc3N3CCCC32)C(=O)N1c1ccc(Cl)cc1 (configuration not stated) | inconclusive: 29.1 µM [inhibitor, single point] | 
COc1ccc(-n2c(/C=C3/C(=O)Nc4ccccc43)nc3ccccc3c2=O)cc1 | inconclusive: 13 µM [inhibitor, partial curve] | 
CC(C)N(CC#CCC1(O)c2ccccc2-c2ccccc21)C(C)C | inactive | 
CC(=O)N1CCC2(CC1)CC(=O)c1cc(OCC(=O)N3CCC4(CC3)OCCO4)ccc1O2 | inactive | 
COC(=O)C1=C(c2ccc(F)cc2OCc2ccccc2)C[C@@H]2CC[C@H]1N2C(=O)NCCCOC(C)C | inconclusive: 29.1 µM [inhibitor, single point] | 
